Data reported in the supplement of paper PMC3334620.
The full ranking holds about 33,000 sequences; the median of “E-score (-0.5 to 0.5)” is about -0.036, and the highest 2% start at about 0.37. Some of the results follow.

Each sequence was assayed against T1, Yer064c (UniProt P40041) (assay: PBM E-score (8-mer binding enrichment) (E-score (-0.5 to 0.5)); higher = stronger / more preferred TF binding; most listed sequences are background and not binding sites). Conditions: protein concentration: 200 nM; construct: GST-full length.
T1 sequence: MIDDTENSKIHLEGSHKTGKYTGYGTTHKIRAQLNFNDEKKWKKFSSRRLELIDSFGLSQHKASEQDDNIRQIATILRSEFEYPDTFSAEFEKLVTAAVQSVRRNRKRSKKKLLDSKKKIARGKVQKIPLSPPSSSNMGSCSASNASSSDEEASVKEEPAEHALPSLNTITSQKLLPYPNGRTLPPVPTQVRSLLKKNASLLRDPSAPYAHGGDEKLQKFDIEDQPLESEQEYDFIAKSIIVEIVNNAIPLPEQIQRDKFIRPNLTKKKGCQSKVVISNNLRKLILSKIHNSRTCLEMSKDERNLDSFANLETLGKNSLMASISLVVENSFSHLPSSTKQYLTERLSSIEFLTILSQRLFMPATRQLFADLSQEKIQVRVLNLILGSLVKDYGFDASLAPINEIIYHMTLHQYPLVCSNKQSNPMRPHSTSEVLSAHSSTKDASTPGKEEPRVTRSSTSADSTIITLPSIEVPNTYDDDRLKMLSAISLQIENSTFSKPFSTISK
Method in brief: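 Yeast transcription factors, full-length or as DNA-binding domains, were expressed with a GST tag using PURExpress in vitro transcription/translation. At about 100-200 nM they were applied to universal all-10-mer Agilent arrays, double-stranded by primer extension on fresh or once-stripped slides. Fluorescent anti-GST detected bound protein, and masliner normalised the scans. E-scores for ungapped eight-base words, pooled with reverse complements, came from the Universal PBM Analysis Suite.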

| Sequence | PBM E-score |
| --- | --- |
| AGCTATAC | -0.119 |
| ACCGATGG | 0.0577 |
| CTCGCAGC | 0.131 |
| GATAACAA | -0.0444 |
| GATGGCCC | -0.305 |
| GAAGACTA | 0.444 |
| GCTACTTA | 0.033 |
| ATGGCGTA | -0.226 |
| ACTAACGG | 0.211 |
| CGCTCGAG | 0.0385 |
| AGGGTGGC | 0.00884 |
| CATGGTGA | 0.142 |
| GCGTCCCC | -0.379 |
| CTACTCCA | -0.0727 |
| GACTGAGA | 0.33 |
| ACTCGCCT | 0.144 |
| ACCGACCT | -0.234 |
| CCCTAGTA | -0.167 |
| CTCCACGC | -0.0833 |
| CTACCTAA | 0.0677 |
| GACTCTGC | 0.376 |
| GGAATGTA | -0.112 |
| AAAACTAC | -0.00325 |
| AGCTGGAC | 0.0573 |
| AAAAGGAA | -0.053 |

| Sequence | PBM E-score |
| --- | --- |
| GGGCCAAC | -0.29 |
| CTTTGGCA | -0.0822 |
| AACAGGAT | -0.262 |
| CCAATGTC | -0.242 |
| ACCGGACC | -0.151 |
| CCCAGGGC | -0.275 |
| GGTCAAAA | 0.0441 |
| CATGGCTC | 0.337 |
| CATGTGAA | -0.0895 |
| CTCCAGAG | -0.0855 |
| GTGACATA | -0.0541 |
| AGGACTGG | 0.15 |
| CCTCCTAG | -0.0737 |
| GGGTGTAA | -0.0653 |
| AATTCAAA | 0.139 |
| ACCAAGGG | -0.0519 |
| AGGGTGCC | -0.213 |
| GGTCGCGA | 0.0568 |
| ATAGTCAA | 0.402 |
| ACGGACAT | -0.206 |
| CACAAAGG | -0.149 |
| AGCAGACA | -0.132 |
| CCACAGCC | -0.0922 |
| CCCAGTCC | -0.101 |
| CCCACTGA | -0.0994 |

| Sequence | PBM E-score |
| --- | --- |
| ATCACAAT | 0.232 |
| CACGGAAA | 0.0316 |
| GAGTCCGC | 0.316 |
| TAGATGGA | -0.0694 |
| GTAGAATA | -0.0286 |
| GGACGCAC | 0.0055 |
| ACGTGACG | -0.176 |
| CTAGCAAC | -0.125 |
| TCCACGCA | -0.0968 |
| ACACGAAT | 0.119 |
| GTATCGGA | -0.146 |
| CAGCTCGG | -0.142 |
| AACCTAAT | 0.0306 |
| AAGCCAGA | -0.166 |
| CTGCCTGA | 0.225 |
| AATATGAA | 0.0906 |
| ATTCCGCG | -0.123 |
| ACTACCGA | 0.0041 |
| GCGCCCGA | -0.0477 |
| GTTACTTA | 0.163 |
| AGTTTTAG | -0.0362 |
| AAGACGCA | -0.148 |
| TAGCGACA | -0.00348 |
| CACCAGAG | -0.0446 |
| AAATAAGG | -0.161 |

| Sequence | PBM E-score |
| --- | --- |
| AGCTCCAC | -0.153 |
| ACACGATG | 0.00339 |
| AGGAAGAC | 0.207 |
| ACGCCTCA | -0.179 |
| ATCGGCGC | -0.173 |
| GCATTAAC | -0.00264 |
| GGTATAAC | -0.212 |
| TCGGGGCA | -0.111 |
| TCATCGGA | 0.15 |
| CCAGAAGG | -0.0483 |
| GTGCTTAA | -0.0711 |
| ATCGTCAC | -0.00908 |
| TAGGATAA | -0.0189 |
| CGCTAACC | -0.19 |
| ACATTTTC | 0.0783 |
| GACCTCCC | -0.235 |
| GGACATGA | -0.041 |
| ATCCTAAA | -0.0812 |
| GCAAGTCA | 0.361 |
| ACTGACAA | 0.182 |
| ACAACTAA | 0.0714 |
| ACCTAATA | -0.0735 |
| GATGAGAC | 0.257 |
| CTTACTAA | 0.219 |
| CGCGAAAG | -0.0469 |

| Sequence | PBM E-score |
| --- | --- |
| CGGGTCAG | 0.0663 |
| GCTCACCC | -0.0459 |
| CTGCCTTC | -0.176 |
| AAGCCCAT | 0.00868 |
| AAGGCCAA | -0.214 |
| AACATCAT | 0.12 |
| AGACCTAT | -0.108 |
| CCTATTGA | 0.0204 |
| CCATGGCC | -0.324 |
| CATCCAGC | 0.0141 |
| GGCGGAAC | -0.0205 |
| AGGCGTCC | -0.227 |
| GAGCTAGA | -0.331 |
| AACAAAAG | -0.0416 |
| CCCTGAAC | -0.00543 |
| GACTCTTA | 0.428 |
| CTCTGAGA | -0.00343 |
| ACAATCAT | 0.385 |
| AGTGAATG | 0.0208 |
| AAGCGAAG | -0.0548 |
| ATGTCTTG | -0.113 |
| TACGATCA | -0.0795 |
| GCGCAAGA | 0.0992 |
| ATAGCGCA | -0.106 |
| CGTGTATA | 0.0534 |

| Sequence | PBM E-score |
| --- | --- |
| GACATAGA | -0.117 |
| TACCGCCA | -0.125 |
| CGTATGCC | -0.111 |
| CTCAAAAG | 0.0753 |
| GCGCCAGA | -0.097 |
| TCCATTAA | -0.109 |
| TTAGCAAA | -0.00339 |
| GTATCCAC | -0.102 |
| AAAGTGCG | -0.07 |
| ATTCATAG | 0.166 |
| ACCGAACA | 0.0147 |
| CCGGAGCA | -0.289 |
| CAATTGGC | 0.00285 |
| GCTTGTAC | -0.18 |
| AGCTCTGC | -0.211 |
| TGTACAAA | -0.0583 |
| CTGTATAA | -0.033 |
| AGAGTTAG | -0.00282 |
| AATGTAGA | -0.197 |
| AGCTTGCG | -0.167 |
| AAATTAAT | 0.221 |
| TGACGCCA | -0.186 |
| CATATGGA | 0.062 |
| CCTACACC | -0.255 |
| GCCTTAGA | 0.0034 |

| Sequence | PBM E-score |
| --- | --- |
| GAGCCGAC | 0.0105 |
| CGCCTATA | -0.111 |
| ATTGCCCA | -0.0349 |
| CTGAGAAG | -0.00418 |
| ACTAACCC | 0.223 |
| GACGGAGA | -0.0412 |
| TCGTGTAA | 0.12 |
| AGTCATCG | 0.492 |
| AGATTCCT | -0.00676 |
| GCCTATAC | -0.241 |
| CAGCGAGG | -0.169 |
| AAACGATT | 0.237 |
| GCATCTGA | -0.00331 |
| CAAGTAAG | 0.0417 |
| ACGAACCA | 0.141 |
| CCATTTGC | -0.0755 |
| CGGCAGAA | -0.25 |
| GGTCACGA | 0.0181 |
| TGGAACCA | 0.109 |
| ATAACCGA | -0.0944 |
| CAAGGTGA | 0.154 |
| ATATGTCA | -0.0581 |
